{
  "source": "the supplement of paper PMC8728848",
  "binders": {"B1": {"name": "Gal 9 (Homo sapiens), O00182 (protein)", "chain": "MAFSGSQAPYLSPAVPFSGTIQGGLQDGLQITVNGTVLSSSGTRFAVNFQTGFSGNDIAFHFNPRFEDGGYVVCNTRQNGSWGPEERKTHMPFQKGMPFDLCFLVQSSDFKVMVNGILFVQYFHRVPFHRVDTISVNGSVQLSYISFQNPRTVPVQPAFSTVPFSQPVCFPPRPRGRRQKPPGVWPANPAPITQTVIHTVQSAPGQMFSTPAIPPMMYPHPAYPMPFITTILGGLYPSKSILLSGTVLPSAQRFHINLCSGNHIAFHLNPRFDENAVVRNTQIDNSWGSEERSLPRKMPFVRGQSFSVWILCEAHCLKVAVDGQHLFEYYHRLRNLPTINRLEVGGDIQLTHVQT"}},
  "assay_in_all_cases": "glycan array binding signal (z-score within array); higher = stronger binding",
  "settings_in_all_cases": "glycan notation: IUPAC condensed, linker removed",
  "key": {"[1]": {"target": "Fuc(a1-2)Gal", "outline": "(§1)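 The Consortium for Functional Glycomics database supplied 3228 glycan arrays, of which those lacking an available protein sequence were dropped. The binding signal, a within-array Z-score, was averaged across arrays of the same protein sequence and across linkers. Negative scores can be read as non-binding.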"}, "[2]": {"target": "Fuc(a1-2)Gal(b1-3)GalNAc", "outline": "as §1"}, "[3]": {"target": "Fuc(a1-2)Gal(b1-3)GalNAc(a1-3)[Fuc(a1-2)]Gal(b1-4)Glc", "outline": "as §1"}, "[4]": {"target": "Fuc(a1-2)Gal(b1-3)GalNAc(a1-3)[Fuc(a1-2)]Gal(b1-4)GlcNAc", "outline": "as §1"}, "[5]": {"target": "Fuc(a1-2)Gal(b1-3)GalNAc(b1-3)Gal", "outline": "as §1"}, "[6]": {"target": "Fuc(a1-2)Gal(b1-3)GalNAc(b1-3)Gal(a1-4)Gal(b1-4)Glc", "outline": "as §1"}, "[7]": {"target": "Fuc(a1-2)Gal(b1-3)GalNAc(b1-4)[Neu5Ac(a2-3)]Gal(b1-4)Glc", "outline": "as §1"}, "[8]": {"target": "Fuc(a1-2)Gal(b1-3)GlcNAc", "outline": "as §1"}, "[9]": {"target": "Fuc(a1-2)Gal(b1-3)GlcNAc(b1-2)Man(a1-3)[Fuc(a1-2)Gal(b1-3)GlcNAc(b1-2)Man(a1-6)]Man(b1-4)GlcNAc(b1-4)GlcNAc", "outline": "as §1"}, "[10]": {"target": "Fuc(a1-2)Gal(b1-3)GlcNAc(b1-2)Man(a1-3)[Fuc(a1-2)Gal(b1-3)GlcNAc(b1-2)Man(a1-6)]Man(b1-4)GlcNAc(b1-4)[Fuc(a1-6)]GlcNAc", "outline": "as §1"}, "[11]": {"target": "Fuc(a1-2)Gal(b1-3)GlcNAc(b1-3)Gal(b1-4)Glc", "outline": "as §1"}, "[12]": {"target": "Fuc(a1-2)Gal(b1-3)GlcNAc(b1-3)GalNAc", "outline": "as §1"}, "[13]": {"target": "Fuc(a1-2)Gal(b1-3)GlcNAc(b1-3)[Fuc(a1-2)Gal(b1-3)GlcNAc(b1-6)]GalNAc", "outline": "as §1"}, "[14]": {"target": "Fuc(a1-2)Gal(b1-3)GlcNAc(b1-3)[Fuc(a1-3)[Gal(b1-4)]GlcNAc(b1-6)]Gal(b1-4)Glc", "outline": "as §1"}, "[15]": {"target": "Fuc(a1-2)Gal(b1-3)GlcNAc(b1-3)[Gal(b1-4)GlcNAc(b1-6)]Gal(b1-4)Glc", "outline": "as §1"}, "[16]": {"target": "Fuc(a1-2)Gal(b1-3)GlcNAc(b1-3)[Neu5Ac(a2-6)Gal(b1-4)GlcNAc(b1-6)]Gal(b1-4)Glc", "outline": "as §1"}, "[17]": {"target": "Fuc(a1-2)Gal(b1-3)GlcNAc6S", "outline": "as §1"}, "[18]": {"target": "Fuc(a1-2)Gal(b1-3)[Fuc(a1-4)]GlcNAc", "outline": "as §1"}, "[19]": {"target": "Fuc(a1-2)Gal(b1-3)[Fuc(a1-4)]GlcNAc(b1-2)Man(a1-3)[Fuc(a1-2)Gal(b1-3)[Fuc(a1-4)]GlcNAc(b1-2)Man(a1-3)]Man(b1-4)GlcNAc(b1-4)GlcNAc", "outline": "as §1"}, "[20]": {"target": "Fuc(a1-2)Gal(b1-3)[Fuc(a1-4)]GlcNAc(b1-2)Man(a1-3)[Fuc(a1-2)Gal(b1-3)[Fuc(a1-4)]GlcNAc(b1-2)Man(a1-6)]Man(b1-4)GlcNAc(b1-4)GlcNAc", "outline": "as §1"}, "[21]": {"target": "Fuc(a1-2)Gal(b1-3)[Fuc(a1-4)]GlcNAc(b1-2)Man(a1-3)[Fuc(a1-2)Gal(b1-3)[Fuc(a1-4)]GlcNAc(b1-2)Man(a1-6)]Man(b1-4)GlcNAc(b1-4)[Fuc(a1-6)]GlcNAc(b1-4)[Fuc(a1-6)]GlcNAc", "outline": "as §1"}, "[22]": {"target": "Fuc(a1-2)Gal(b1-3)[Fuc(a1-4)]GlcNAc(b1-3)[Fuc(a1-3)[Gal(b1-4)]GlcNAc(b1-6)]Gal(b1-4)Glc", "outline": "as §1"}, "[23]": {"target": "Fuc(a1-2)Gal(b1-3)[Fuc(a1-4)]GlcNAc(b1-3)[Gal(b1-4)GlcNAc(b1-6)]Gal(b1-4)Glc", "outline": "as §1"}, "[24]": {"target": "Fuc(a1-2)Gal(b1-4)Fuc(a1-3)]GlcNAc(b1-2)Man(a1-3)[Fuc(a1-2)Gal(b1-4)[Fuc(a1-3)]GlcNAc(b1-2)Man(a1-6)]Man(b1-4)GlcNAc(b1-4)GlcNAc", "outline": "as §1"}, "[25]": {"target": "Fuc(a1-2)Gal(b1-4)Glc", "outline": "as §1"}, "[26]": {"target": "Fuc(a1-2)Gal(b1-4)Glc6S", "outline": "as §1"}, "[27]": {"target": "Fuc(a1-2)Gal(b1-4)GlcNAc", "outline": "as §1"}, "[28]": {"target": "Fuc(a1-2)Gal(b1-4)GlcNAc(b1-2)Man", "outline": "as §1"}, "[29]": {"target": "Fuc(a1-2)Gal(b1-4)GlcNAc(b1-2)Man(a1-3)[Fuc(a1-2)Gal(b1-4)GlcNAc(b1-2)Man(a1-6)]Man(b1-4)GlcNAc(b1-4)GlcNAc", "outline": "as §1"}, "[30]": {"target": "Fuc(a1-2)Gal(b1-4)GlcNAc(b1-2)Man(a1-3)[Fuc(a1-2)Gal(b1-4)GlcNAc(b1-2)Man(a1-6)]Man(b1-4)GlcNAc(b1-4)[Fuc(a1-6)]GlcNAc", "outline": "as §1"}, "[31]": {"target": "Fuc(a1-2)Gal(b1-4)GlcNAc(b1-2)[Fuc(a1-2)Gal(b1-4)GlcNAc(b1-4)]Man(a1-3)[Fuc(a1-2)Gal(b1-4)GlcNAc(b1-2)Man(a1-6)]Man(b1-4)GlcNAc(b1-4)GlcNAc", "outline": "as §1"}, "[32]": {"target": "Fuc(a1-2)Gal(b1-4)GlcNAc(b1-3)Gal(b1-4)GlcNAc", "outline": "as §1"}, "[33]": {"target": "Fuc(a1-2)Gal(b1-4)GlcNAc(b1-3)Gal(b1-4)GlcNAc(b1-2)Man(a1-3)[Fuc(a1-2)Gal(b1-4)GlcNAc(b1-3)Gal(b1-4)GlcNAc(b1-2)Man(a1-6)]Man(b1-4)GlcNAc(b1-4)GlcNAc", "outline": "as §1"}, "[34]": {"target": "Fuc(a1-2)Gal(b1-4)GlcNAc(b1-3)Gal(b1-4)GlcNAc(b1-3)Gal(b1-4)GlcNAc", "outline": "as §1"}, "[35]": {"target": "Fuc(a1-2)Gal(b1-4)GlcNAc(b1-3)GalNAc", "outline": "as §1"}, "[36]": {"target": "Fuc(a1-2)Gal(b1-4)GlcNAc(b1-3)[Fuc(a1-2)Gal(b1-4)GlcNAc(b1-6)]GalNAc", "outline": "as §1"}, "[37]": {"target": "Fuc(a1-2)Gal(b1-4)GlcNAc(b1-3)[Fuc(a1-3)[Gal(b1-4)]GlcNAc(b1-6)]Gal(b1-4)Glc", "outline": "as §1"}},
  "note": "The list shows a part of the results.",
  "data": [
    {"binder": "B1", "values": [
      {"measurement": "glycan array binding signal (z-score)", "setting": "[1]", "result": -0.307},
      {"measurement": "glycan array binding signal (z-score)", "setting": "[2]", "result": -0.313},
      {"measurement": "glycan array binding signal (z-score)", "setting": "[3]", "result": -0.317},
      {"measurement": "glycan array binding signal (z-score)", "setting": "[4]", "result": -0.285},
      {"measurement": "glycan array binding signal (z-score)", "setting": "[5]", "result": -0.31},
      {"measurement": "glycan array binding signal (z-score)", "setting": "[6]", "result": -0.306},
      {"measurement": "glycan array binding signal (z-score)", "setting": "[7]", "result": -0.311},
      {"measurement": "glycan array binding signal (z-score)", "setting": "[8]", "result": -0.265},
      {"measurement": "glycan array binding signal (z-score)", "setting": "[9]", "result": 0.332},
      {"measurement": "glycan array binding signal (z-score)", "setting": "[10]", "result": -0.234},
      {"measurement": "glycan array binding signal (z-score)", "setting": "[11]", "result": 0.837},
      {"measurement": "glycan array binding signal (z-score)", "setting": "[12]", "result": -0.3},
      {"measurement": "glycan array binding signal (z-score)", "setting": "[13]", "result": -0.196},
      {"measurement": "glycan array binding signal (z-score)", "setting": "[14]", "result": 0.106},
      {"measurement": "glycan array binding signal (z-score)", "setting": "[15]", "result": 2.32},
      {"measurement": "glycan array binding signal (z-score)", "setting": "[16]", "result": -0.211},
      {"measurement": "glycan array binding signal (z-score)", "setting": "[17]", "result": -0.282},
      {"measurement": "glycan array binding signal (z-score)", "setting": "[18]", "result": -0.292},
      {"measurement": "glycan array binding signal (z-score)", "setting": "[19]", "result": -0.283},
      {"measurement": "glycan array binding signal (z-score)", "setting": "[20]", "result": -0.328},
      {"measurement": "glycan array binding signal (z-score)", "setting": "[21]", "result": -0.257},
      {"measurement": "glycan array binding signal (z-score)", "setting": "[22]", "result": -0.301},
      {"measurement": "glycan array binding signal (z-score)", "setting": "[23]", "result": 0.018},
      {"measurement": "glycan array binding signal (z-score)", "setting": "[24]", "result": -0.266},
      {"measurement": "glycan array binding signal (z-score)", "setting": "[25]", "result": -0.304},
      {"measurement": "glycan array binding signal (z-score)", "setting": "[26]", "result": -0.295},
      {"measurement": "glycan array binding signal (z-score)", "setting": "[27]", "result": -0.293},
      {"measurement": "glycan array binding signal (z-score)", "setting": "[28]", "result": -0.312},
      {"measurement": "glycan array binding signal (z-score)", "setting": "[29]", "result": 1.95},
      {"measurement": "glycan array binding signal (z-score)", "setting": "[30]", "result": -0.322},
      {"measurement": "glycan array binding signal (z-score)", "setting": "[31]", "result": 0.133},
      {"measurement": "glycan array binding signal (z-score)", "setting": "[32]", "result": 0.762},
      {"measurement": "glycan array binding signal (z-score)", "setting": "[33]", "result": -0.291},
      {"measurement": "glycan array binding signal (z-score)", "setting": "[34]", "result": 0.746},
      {"measurement": "glycan array binding signal (z-score)", "setting": "[35]", "result": -0.277},
      {"measurement": "glycan array binding signal (z-score)", "setting": "[36]", "result": -0.3},
      {"measurement": "glycan array binding signal (z-score)", "setting": "[37]", "result": -0.3}
    ]}
  ]
}
